This note sets out measurements from patent US20240150476A1 (Chugai, published 2024).

T1: hsIL-6R-BAP1 (human, UniProt P08887 20-357, biotin on the C-terminal AviTag sequence (BirA))
T1 construct: also called hsIL-6R-Avitag; biotinylated soluble human IL6R
T1 sequence: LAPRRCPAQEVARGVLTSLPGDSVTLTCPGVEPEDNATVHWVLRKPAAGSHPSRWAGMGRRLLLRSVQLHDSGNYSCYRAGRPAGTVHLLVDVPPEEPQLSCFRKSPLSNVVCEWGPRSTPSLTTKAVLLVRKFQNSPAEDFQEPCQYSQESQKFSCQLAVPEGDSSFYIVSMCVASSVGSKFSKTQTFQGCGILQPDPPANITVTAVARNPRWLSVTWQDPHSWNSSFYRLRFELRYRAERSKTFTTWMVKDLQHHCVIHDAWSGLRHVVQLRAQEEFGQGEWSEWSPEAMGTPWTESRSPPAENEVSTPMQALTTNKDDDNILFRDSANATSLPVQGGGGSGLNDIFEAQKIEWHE

T2: soluble human IL-6R (human, UniProt P08887 20-357)
T2 construct: Expressed in CHO cells and purified from the supernatant; also called hsIL-6R; recombinant human IL6R
T2 sequence: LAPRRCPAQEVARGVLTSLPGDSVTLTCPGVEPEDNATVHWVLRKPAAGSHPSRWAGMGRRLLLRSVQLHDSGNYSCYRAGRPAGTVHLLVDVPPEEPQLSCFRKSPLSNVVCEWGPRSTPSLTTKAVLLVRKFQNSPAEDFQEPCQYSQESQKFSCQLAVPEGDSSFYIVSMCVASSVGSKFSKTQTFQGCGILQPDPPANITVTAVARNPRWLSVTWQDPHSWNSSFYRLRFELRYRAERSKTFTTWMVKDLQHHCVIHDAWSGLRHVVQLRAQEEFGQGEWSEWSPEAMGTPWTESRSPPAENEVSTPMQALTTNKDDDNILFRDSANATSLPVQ

B1: PX02-R4_017-G1mISHI01/VK1-39-k0MT (other)
heavy: QVQLVESGGGLVQPGGSLRLSCTASGISFSISTMGWYRQAPGKQRELVATITSGGEAYYANSMKDRFTISRDNAENTVYLQMNRLKPEDSAVYYCNTKFPWSTDWNARGQGTQVTVSGGSGLSGRSDNHGSSGGSS[skipping human IgG1 constant region]
light: DIQMTQSPSSLSASVGDRVTITCRASQSISSYLNWYQQKPGKAPKLLIYAASSLQSGVPSRFSGSGSGTDFTLTISSLQPEDFATYYCLQFDSYPLTFGGGTKVEIKRTVAAPSVFIFPPSDEQLKSGTASVVCLLNNFYPREAKVQWKVDNALQSGNSQESVTEQDSKDSTYSLSSTLTLSKADYEKHKVYACEVTHQGLSSPVTKSFNRGEC
notes: IgG antibody-like molecule; Not protease-treated
B2: PX02-R2_001-G1mISHI01/VK1-39-k0MT (other)
heavy: QLQLVESGGGLVQPGGSLRLSCTASGISFSISTMGWYRQAPGKQRELVATITSGGEAYYANSMKDRFTISRDNAENTVYLQMNRLKPEDSAVYYCNTKFPWSTDWDSRGQGTQVTVSGGSGLSGRSDNHGSSGGSS[skipping human IgG1 constant region]
light: DIQMTQSPSSLSASVGDRVTITCRASQSISSYLNWYQQKPGKAPKLLIYAASSLQSGVPSRFSGSGSGTDFTLTISSLQPEDFATYYCLQFDSYPLTFGGGTKVEIKRTVAAPSVFIFPPSDEQLKSGTASVVCLLNNFYPREAKVQWKVDNALQSGNSQESVTEQDSKDSTYSLSSTLTLSKADYEKHKVYACEVTHQGLSSPVTKSFNRGEC
notes: Not protease-treated
B3: PX03-R4_009-G1mISHI01/VK1-39-k0MT (other)
heavy: QLQLVESGGGLVQPGGSLRLSCTASGISFSISTMGWYRQAPGKQRELVATIASGGEAYYANSVKGRFTISREYAENTVFLQMNRLKPEDSAVYYCNTKFPWSTDWNARGQGTQVTVSGGSGLSGRSDNHGSSGGSS[skipping human IgG1 constant region]
light: DIQMTQSPSSLSASVGDRVTITCRASQSISSYLNWYQQKPGKAPKLLIYAASSLQSGVPSRFSGSGSGTDFTLTISSLQPEDFATYYCLQFDSYPLTFGGGTKVEIKRTVAAPSVFIFPPSDEQLKSGTASVVCLLNNFYPREAKVQWKVDNALQSGNSQESVTEQDSKDSTYSLSSTLTLSKADYEKHKVYACEVTHQGLSSPVTKSFNRGEC
notes: as for B1
B4: PX02-R4_004-G1mISHI01/VK1-39-k0MT (other)
heavy: QVQLVESGGGLVQPGGSLRLSCTASGISFSISTMGWYRQAPGKQRELVATITSGGEAYYANSMKDRFTISRDNAENTVYLQMNRLKPEDSAVYYCNTKFPWSTDWDSRGQGTQVTVSGGSGLSGRSDNHGSSGGSS[skipping human IgG1 constant region]
light: DIQMTQSPSSLSASVGDRVTITCRASQSISSYLNWYQQKPGKAPKLLIYAASSLQSGVPSRFSGSGSGTDFTLTISSLQPEDFATYYCLQFDSYPLTFGGGTKVEIKRTVAAPSVFIFPPSDEQLKSGTASVVCLLNNFYPREAKVQWKVDNALQSGNSQESVTEQDSKDSTYSLSSTLTLSKADYEKHKVYACEVTHQGLSSPVTKSFNRGEC
notes: as for B1
B5: PX03-R2_006-G1mISHI01/VK1-39-k0MT (other)
heavy: QLQLVESGGGLVQPGGSLRLSCTASGISFSISTMGWYRQAPGKQRELVATIASGGEAYYANSVKGRFTISRDNAENTVYLQMNRLKPEDSAVYYCNTKFPWSTDWNARGQGTQVTVSGGSGLSGRSDNHGSSGGSS[skipping human IgG1 constant region]
light: DIQMTQSPSSLSASVGDRVTITCRASQSISSYLNWYQQKPGKAPKLLIYAASSLQSGVPSRFSGSGSGTDFTLTISSLQPEDFATYYCLQFDSYPLTFGGGTKVEIKRTVAAPSVFIFPPSDEQLKSGTASVVCLLNNFYPREAKVQWKVDNALQSGNSQESVTEQDSKDSTYSLSSTLTLSKADYEKHKVYACEVTHQGLSSPVTKSFNRGEC
notes: as for B1
B6: IL6R90H1006/VK1-39-k0MT (other)
heavy: EVQLVESGGGLVQPGGSLRLSCAASGFTFDDYGMSWVRQAPGKALEWVSAISWNGNNTYYTESMKGRFTISRDNAKNTLYLQMNSLRPEDTAVYYCVKGSTAIVGVPPTYPDEYDYWGQGTLVTVSSASTKSGGSGLSGRSDNHGSSGGGPSVFPLAPSSKSTSGGTAALGCLVKDYFPEPVTVSWNSGALTSGVHTFPAVLQSSGLYSLSSVVTVPSSSLGTQTYICNVNHKPSNTKVDKKV[skipping human IgG1 Fc]
light: DIQMTQSPSSLSASVGDRVTITCRASQSISSYLNWYQQKPGKAPKLLIYAASSLQSGVPSRFSGSGSGTDFTLTISSLQPEDFATYYCLQFDSYPLTFGGGTKVEIKRTVAAPSVFIFPPSDEQLKSGTASVVCLLNNFYPREAKVQWKVDNALQSGNSQESVTEQDSKDSTYSLSSTLTLSKADYEKHKVYACEVTHQGLSSPVTKSFNRGEC
notes: Not protease-treated
B7: IL6R90H1004/VK1-39-k0MT (other)
heavy: EVQLVESGGGLVQPGGSLRLSCAASGFTFDDYGMSWVRQAPGKALEWVSAISWNGNNTYYTESMKGRFTISRDNAKNTLYLQMNSLRPEDTAVYYCVKGSTAIVGVPPTYPDEYDYWGQGTLVTVSGGSGLSGRSDNHGSSGGSS[skipping human IgG1 constant region]
light: DIQMTQSPSSLSASVGDRVTITCRASQSISSYLNWYQQKPGKAPKLLIYAASSLQSGVPSRFSGSGSGTDFTLTISSLQPEDFATYYCLQFDSYPLTFGGGTKVEIKRTVAAPSVFIFPPSDEQLKSGTASVVCLLNNFYPREAKVQWKVDNALQSGNSQESVTEQDSKDSTYSLSSTLTLSKADYEKHKVYACEVTHQGLSSPVTKSFNRGEC
notes: Not protease-treated
B8: IL6R90H1005/VK1-39-k0MT (other)
heavy: EVQLVESGGGLVQPGGSLRLSCAASGFTFDDYGMSWVRQAPGKALEWVSAISWNGNNTYYTESMKGRFTISRDNAKNTLYLQMNSLRPEDTAVYYCVKGSTAIVGVPPTYPDEYDYWGQGTLVTVSSASTKLSGRSDNHGGPSVFPLAPSSKSTSGGTAALGCLVKDYFPEPVTVSWNSGALTSGVHTFPAVLQSSGLYSLSSVVTVPSSSLGTQTYICNVNHKPSNTKVDKKV[skipping human IgG1 Fc]
light: DIQMTQSPSSLSASVGDRVTITCRASQSISSYLNWYQQKPGKAPKLLIYAASSLQSGVPSRFSGSGSGTDFTLTISSLQPEDFATYYCLQFDSYPLTFGGGTKVEIKRTVAAPSVFIFPPSDEQLKSGTASVVCLLNNFYPREAKVQWKVDNALQSGNSQESVTEQDSKDSTYSLSSTLTLSKADYEKHKVYACEVTHQGLSSPVTKSFNRGEC
notes: Not protease-treated
B9: IL6R90H1002/VK1-39-k0MT (other)
heavy: EVQLVESGGGLVQPGGSLRLSCAASGFTFDDYGMSWVRQAPGKALEWVSAISWNGNNTYYTESMKGRFTISRDNAKNTLYLQMNSLRPEDTAVYYCVKGSTAIVGVPPTYPDEYDYWGQGTLVTVSSASSGGSGLSGRSDNHGSSGGTKGPSVFPLAPSSKSTSGGTAALGCLVKDYFPEPVTVSWNSGALTSGVHTFPAVLQSSGLYSLSSVVTVPSSSLGTQTYICNVNHKPSNTKVDKKV[skipping human IgG1 Fc]
light: DIQMTQSPSSLSASVGDRVTITCRASQSISSYLNWYQQKPGKAPKLLIYAASSLQSGVPSRFSGSGSGTDFTLTISSLQPEDFATYYCLQFDSYPLTFGGGTKVEIKRTVAAPSVFIFPPSDEQLKSGTASVVCLLNNFYPREAKVQWKVDNALQSGNSQESVTEQDSKDSTYSLSSTLTLSKADYEKHKVYACEVTHQGLSSPVTKSFNRGEC
notes: Not protease-treated
B10: 20A11-G1m/VK1-39-k0MT (other)
heavy: EVQLVESGGGLVQPGGSLRLSCAASGSVFKINVMAWYRQAPGKGRELVAGIISGGSTSYADSVKGRFTISRDNAKNTLYLQMNSLRPEDTAVYYCAFITTESDYDLGRRYWGQGTLVTVSS[skipping human IgG1 constant region]
light: DIQMTQSPSSLSASVGDRVTITCRASQSISSYLNWYQQKPGKAPKLLIYAASSLQSGVPSRFSGSGSGTDFTLTISSLQPEDFATYYCLQFDSYPLTFGGGTKVEIKRTVAAPSVFIFPPSDEQLKSGTASVVCLLNNFYPREAKVQWKVDNALQSGNSQESVTEQDSKDSTYSLSSTLTLSKADYEKHKVYACEVTHQGLSSPVTKSFNRGEC
notes: IgG antibody-like molecule: anti-IL6R VHH 20A11 fused with human IgG1 CH1-hinge-CH2-CH3
B11: 20A11-G1m/VL1-44-lamL (other)
heavy: EVQLVESGGGLVQPGGSLRLSCAASGSVFKINVMAWYRQAPGKGRELVAGIISGGSTSYADSVKGRFTISRDNAKNTLYLQMNSLRPEDTAVYYCAFITTESDYDLGRRYWGQGTLVTVSS[skipping human IgG1 constant region]
light: QSVLTQPPSASGTPGQRVTISCSGSSSNIGSNTVNWYQQLPGTAPKLLIYSNNQRPSGVPDRFSGSKSGTSASLAISGLQSEDEADYYCGTWDGGVTGVVFGGGTKLTVLGQPKAAPSVTLFPPSSEELQANKATLVCLISDFYPGAVTVAWKADSSPVKAGVETTTPSKQSNNKYAASSYLSLTPEQWKSHRSYSCQVTHEGSTVEKTVAPTECS
notes: IgG antibody-like molecule

The first test deals with T3, biotinylated plexin A1 (human, UniProt Q9UIW2 27-1253, biotin on the AviTag sequence (BirA)).
T3 construct: also called biotin-labeled human plexin A1; human plexin A1
The experiment in a line: BLI (Octet), human plexin A1 on sensor, protease-untreated molecule as analyte. In general terms: Biolayer interferometry detects binding as a change in optical thickness at a sensor tip.
In the case of B1, the binding result is recorded as “no binding”. Regarding B2, the binding result is “no binding”. Regarding B3, the binding result was “no binding”. On to B4, for which the binding result was “no binding”. B5: the binding result is given as “no binding”.

Another test has as its target T1, hsIL-6R-BAP1. The test can be described thus: BLI (Octet HTX), hsIL-6R-BAP1 on streptavidin sensor, protease-untreated molecule as analyte, 30 C.
B6: the binding result is given as “no binding”.

Consider B7, for which the binding result is “no binding”.

For B8, the binding result is “no binding”. B9: the binding result was “no binding”.

In a further test the target is T2, soluble human IL-6R. The test can be described thus: BLI (Octet), in the same way as in Example 3.
With B10, the binding result is listed as “binds”. As to B11, the binding result is on record as “binds”.
